This note sets out measurements from article PMC4081100.

This is a selection; strong and weak results do not stand in their true shares. For some of these results: At the low end of the ranking the order means little. Some of the results follow. For some of these results: The exact form of the protein is not confirmed.

Test in all cases: universal protein binding microarray (PBM)
What all share (conditions): transcription factors of Arabidopsis thaliana; high values mean tight binding; most listed sequences are background and not binding sites; double strand, one strand shown

Experiment [1] has as its target T1, GST-ANAC092(1-176) (UniProt Q9FKA0).
T1 sequence: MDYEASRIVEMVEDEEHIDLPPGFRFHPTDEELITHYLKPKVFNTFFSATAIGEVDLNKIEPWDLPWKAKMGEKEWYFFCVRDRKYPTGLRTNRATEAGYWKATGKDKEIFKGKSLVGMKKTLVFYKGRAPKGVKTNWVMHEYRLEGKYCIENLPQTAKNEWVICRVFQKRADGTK

For experiment [2], the target named is GST-NTL6(1-168) (UniProt Q9SCK6).
The target in experiment [3] is T2, GST-ANAC055(1-171) (UniProt Q9LDY8).
T2 sequence: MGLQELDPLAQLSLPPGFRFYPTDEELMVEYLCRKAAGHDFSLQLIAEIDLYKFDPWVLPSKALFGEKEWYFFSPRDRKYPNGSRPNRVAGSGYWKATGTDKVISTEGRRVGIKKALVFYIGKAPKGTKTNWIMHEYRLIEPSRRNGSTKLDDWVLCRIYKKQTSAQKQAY

The target of experiment [4] is T3, GST-ATAF1 NAC domain (UniProt Q39013).
T3 sequence: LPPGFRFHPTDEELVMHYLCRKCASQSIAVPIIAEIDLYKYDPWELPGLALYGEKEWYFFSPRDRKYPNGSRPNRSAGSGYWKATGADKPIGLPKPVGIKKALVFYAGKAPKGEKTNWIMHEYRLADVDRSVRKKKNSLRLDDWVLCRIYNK

The target of experiment [5] is T4, GST-ANAC092(1-285) full length (UniProt Q9FKA0).
T4 sequence: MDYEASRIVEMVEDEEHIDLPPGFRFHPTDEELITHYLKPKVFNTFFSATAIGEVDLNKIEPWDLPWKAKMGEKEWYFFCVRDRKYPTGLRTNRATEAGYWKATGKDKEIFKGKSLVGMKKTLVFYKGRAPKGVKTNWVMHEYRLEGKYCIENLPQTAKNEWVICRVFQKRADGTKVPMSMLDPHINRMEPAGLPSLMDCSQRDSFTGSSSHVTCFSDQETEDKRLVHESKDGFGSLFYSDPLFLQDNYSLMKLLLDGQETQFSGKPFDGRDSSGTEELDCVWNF

The target of experiment [6] is T5, GST-NAP(1-166) (UniProt O49255).
T5 sequence: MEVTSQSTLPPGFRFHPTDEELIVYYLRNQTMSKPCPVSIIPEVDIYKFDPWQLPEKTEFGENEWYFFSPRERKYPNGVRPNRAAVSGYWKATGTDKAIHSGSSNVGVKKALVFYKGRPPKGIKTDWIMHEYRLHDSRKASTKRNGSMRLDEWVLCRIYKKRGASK

The target of experiment [7] is T6, GST-NST2(1-184) (UniProt Q9M274).
T6 sequence: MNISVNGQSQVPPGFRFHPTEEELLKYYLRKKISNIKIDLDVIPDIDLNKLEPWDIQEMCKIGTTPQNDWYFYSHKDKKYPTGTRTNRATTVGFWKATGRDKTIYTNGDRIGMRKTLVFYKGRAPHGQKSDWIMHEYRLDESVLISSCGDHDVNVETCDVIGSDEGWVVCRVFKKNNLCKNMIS

In experiment [8] the target is T7, GST-NTL8 NAC domain (UniProt Q9XIN7).
T7 sequence: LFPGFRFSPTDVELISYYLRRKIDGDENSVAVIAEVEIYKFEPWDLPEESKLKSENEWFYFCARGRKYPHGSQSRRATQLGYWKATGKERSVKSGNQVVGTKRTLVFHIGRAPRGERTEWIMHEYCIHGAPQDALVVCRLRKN

Experiment [9] addresses T8, GST-SND1(1-203) (UniProt Q9LPI7).
T8 sequence: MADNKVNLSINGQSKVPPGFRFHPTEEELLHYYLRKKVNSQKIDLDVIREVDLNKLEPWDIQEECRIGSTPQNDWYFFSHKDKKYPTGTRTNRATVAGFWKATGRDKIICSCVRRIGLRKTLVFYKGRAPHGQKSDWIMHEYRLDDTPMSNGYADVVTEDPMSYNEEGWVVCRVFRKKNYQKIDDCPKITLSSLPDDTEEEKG

In experiment [10] the target is T9, GST-VND3 NAC domain (UniProt Q9FH59).
T9 sequence: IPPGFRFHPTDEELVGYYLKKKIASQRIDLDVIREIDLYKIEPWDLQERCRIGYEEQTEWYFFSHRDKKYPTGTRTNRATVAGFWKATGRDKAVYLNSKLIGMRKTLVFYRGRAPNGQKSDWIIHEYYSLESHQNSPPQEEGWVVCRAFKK

Experiment [11] addresses T10, GST-VND7 NAC domain (UniProt Q9C8W9).
T10 sequence: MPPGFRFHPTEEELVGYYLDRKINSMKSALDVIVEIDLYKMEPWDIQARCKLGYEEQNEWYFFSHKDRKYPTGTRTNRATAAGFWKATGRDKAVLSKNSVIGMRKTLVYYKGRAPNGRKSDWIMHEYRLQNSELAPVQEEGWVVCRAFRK

Experiment [12] deals with T11, GST-VOZ2 (Arabidopsis thaliana) (UniProt Q9SLB9).
T11 sequence: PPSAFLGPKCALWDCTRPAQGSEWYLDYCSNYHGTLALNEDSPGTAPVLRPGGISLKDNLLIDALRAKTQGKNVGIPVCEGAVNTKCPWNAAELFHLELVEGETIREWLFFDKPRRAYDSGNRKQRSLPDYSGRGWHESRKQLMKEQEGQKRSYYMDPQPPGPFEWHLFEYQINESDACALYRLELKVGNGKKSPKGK

The target of experiment [13] is T12, GST-ANAC019 NAC domain (UniProt Q9C932).
T12 sequence: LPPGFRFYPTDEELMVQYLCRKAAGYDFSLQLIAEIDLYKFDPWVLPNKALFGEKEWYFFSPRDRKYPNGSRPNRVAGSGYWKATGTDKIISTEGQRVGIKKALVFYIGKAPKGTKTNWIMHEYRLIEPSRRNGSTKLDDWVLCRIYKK

UniProt Q9SCK6, sequence (Q9SCK6 1-168): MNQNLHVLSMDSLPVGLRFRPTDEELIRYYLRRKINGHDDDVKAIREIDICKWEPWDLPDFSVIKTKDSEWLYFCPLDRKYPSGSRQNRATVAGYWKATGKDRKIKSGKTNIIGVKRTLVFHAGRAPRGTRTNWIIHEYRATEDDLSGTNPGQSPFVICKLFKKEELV

Take GCTGACCA: the binding signal is -0.141 E-score in experiment [1]; -0.225 E-score in experiment [2]; -0.158 E-score in experiment [3]; -0.207 E-score in [4]; -0.129 E-score in [5]; -0.0578 E-score in experiment [6]. For the same sequence, the binding signal is -0.173 E-score in experiment [7]; -0.0524 E-score in [8]; -0.0785 E-score in experiment [9]; -0.0474 E-score in [10]; -0.0534 E-score in experiment [11]; -0.207 E-score in experiment [12].
Take GCGTTGAC: the binding signal is 0.0425 E-score in experiment [1]; -0.0732 E-score in experiment [2]; -0.0149 E-score in experiment [3]; -0.0366 E-score in experiment [4]; -0.0529 E-score in experiment [5]; 0.02 E-score in experiment [7]. For the same sequence, the binding signal in experiment [8] was -0.0842 E-score; in experiment [9], -0.0365 E-score; in [10], 0.000825 E-score; in [11] it was 0.0459 E-score; in experiment [12] it was 0.026 E-score.
As for ACTGGTCA, the binding signal in [2] was -0.124 E-score; in experiment [13], -0.0184 E-score; in experiment [3], -0.0803 E-score; in experiment [4], -0.103 E-score; in experiment [5], -0.0168 E-score; in [6], -0.0704 E-score. Also, the binding signal in experiment [7] was -0.11 E-score; in [8], -0.0498 E-score; in [9], -0.0103 E-score; in [10], 0.0448 E-score; in experiment [11], -0.142 E-score; in experiment [12], -0.105 E-score.
Turning to GGTGGTCA, the binding signal was -0.0782 E-score in experiment [1]; -0.087 E-score in [2]; -0.0723 E-score in experiment [3]; -0.0193 E-score in experiment [4]; -0.0565 E-score in [5]; -0.0135 E-score in experiment [6]. Further, the binding signal is -0.0307 E-score in experiment [7]; -0.0727 E-score in experiment [8]; -0.0138 E-score in experiment [9]; -0.051 E-score in experiment [10]; -0.0635 E-score in experiment [11]; 0.0505 E-score in [12].
Consider CTGGTCAA, for which the binding signal in [2] is -0.0936 E-score; in [13], -0.0595 E-score; in experiment [3], -0.0681 E-score; in [4], -0.0243 E-score; in experiment [5], -0.101 E-score; in experiment [6], -0.0439 E-score. Besides, the binding signal in [7] is -0.0641 E-score; in experiment [8] it was 0.0347 E-score; in experiment [9], -0.0342 E-score; in experiment [10] it was -0.0288 E-score; in experiment [11], -0.0431 E-score; in experiment [12], 0.0695 E-score.
On to GTTTGACA, for which the binding signal is -0.0657 E-score in experiment [1]; -0.0133 E-score in [2]; -0.0164 E-score in experiment [13]; 0.0647 E-score in [3]; -0.036 E-score in experiment [5]; -0.0348 E-score in experiment [6]. Further, the binding signal in experiment [8] is -0.105 E-score; in experiment [9], -0.1 E-score; in [10], -0.0562 E-score; in [11], -0.0349 E-score; in [12], -0.0111 E-score.
